Over roughly 33,000 sequences, “E-score (-0.5 to 0.5)” has its median near -0.01; the highest 2% begin near 0.26. The list shows a part of the results.
Each sequence was assayed against Ste12 (UniProt P13574) (assay: PBM E-score (8-mer binding enrichment) (E-score (-0.5 to 0.5)); higher = stronger / more preferred TF binding; most listed sequences are background and not binding sites). Conditions: protein concentration: 200 nM; construct: GST-DNA-binding domain.
Protocol: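 Universal 'all 10-mer' protein binding microarrays (Agilent AMADID 015681) probed with GST-tagged S. cerevisiae TFs (full-length or DBD) made by in vitro transcription/translation (PURExpress), about 100-200 nM. Bound TF was detected with fluorescent anti-GST. Each ungapped 8-mer (which stands for itself and its reverse complement) is scored by the PBM enrichment score (E-score), a modified Wilcoxon-Mann-Whitney statistic from -0.5 to +0.5, computed with the Universal PBM Analysis Suite. Scale: above 0.35 generally sequence-specific binding.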

Sequence	PBM E-score
ACTCCTGA	0.0449
AACCACGT	-0.0693
GATAGATC	-0.194
CCAGTTGA	-0.253
GAGAAAGC	0.0134
CACTCGGA	0.0339
ACCCCGCT	0.203
TACCTGCA	-0.169
ATAGGAAA	0.0645
AGTCCTTC	-0.225
GCCAAACC	-0.00579
ATCCTATC	-0.0507
GTGAGACA	0.256
AGTCAGTA	0.0823
ATAATTTC	-0.0332
GCTCCTCA	-0.226
TATACTCA	-0.00467
ACGAACCC	-0.0779
CCGAAGAA	-0.026
GAGCTAAC	-0.0165
AGTCAGTC	-0.202
AATTCCGG	0.00194

Sequence	PBM E-score
ACCCCAAT	-0.163
GCCGGCCA	-0.0663
ACTCAACC	-0.0105
CAAAGCAA	0.24
CGAGCGGC	-0.00175
CGATGCCG	-0.12
CCCATCCA	0.0595
AGAACGCA	-0.153
TCGATCAA	-0.101
TGAGCAAA	0.0657
AGAATTGC	0.102
CAAGCTGC	-0.0394
CCAAGGAC	-0.175
CAATAACA	0.0401
AGTGCTAC	-0.32
CGTGCTTA	0.0934
ACTATTCT	0.0411
GCCATCCC	-0.0503
CCTACATC	-0.0386
GCTCATCA	-0.0615
ACAGACAC	-0.0621
ACACCGAT	-0.198

Sequence	PBM E-score
CTCGCGTC	-0.0265
CAATATAC	0.116
AGTTGACA	-0.0152
ACCGCATA	0.102
CCGGCGTC	0.041
CCCTAGGA	-0.0792
AGGTACAT	-0.118
CTCGTATC	-0.0255
CGGTTTCC	0.1
CAACAGTC	-0.144
AATCACGA	-0.105
GAATTATC	0.0425
CACAAAAC	0.23
CCCCATCC	0.0406
TTAGATAA	0.065
CGTGCATA	-0.189
ATAAGGTG	0.038
GACATCGC	-0.126
ATGGTCCA	-0.157
TCGGACAA	0.134
ATGTCCGC	-0.181
CTGTCTGA	0.0429

Sequence	PBM E-score
TCTGTCAA	0.0339
AACGGAGT	0.114
ACGTAAGC	-0.176
CGAGGTGC	-0.0816
GCTAGCTA	-0.113
ATCTCGTA	-0.125
GGTTAGAA	-0.145
TACTAGAA	0.196
CGTAACGC	0.248
AGGTCAAG	-0.0303
CCCGCTTA	-0.0721
GCAGCTCC	-0.209
CAGCCATG	-0.0258
AGCAAATA	0.085
GGCTCTAA	0.157
CAAGGGTC	-0.167
AAGCTATA	0.0484
GTTGCGTA	0.256
CGAAATAC	0.0956
AAAGTTAT	0.185

From the supplement of paper PMC3334620
